{"source": "the antibiotic and cytotoxicity screens of Wong et al. (2023)", "note": "This is one part of the list."}
{"system": "HSkMC (human skeletal muscle cells)", "experiment": "cytotoxicity call (relative viability < 0.9)", "settings": "10 µM"}
{"compound": "Cc1noc(C)c1NC(=O)N(C)C[C@@H]1Oc2ccc(NS(=O)(=O)c3ccccc3)cc2C(=O)N([C@@H](C)CO)C[C@@H]1C", "cytotoxicity call": "inactive"}
{"compound": "Cc1ccc(S(=O)(=O)N2C[C@@H](O)COC[C@H]3O[C@H](CC(=O)NCc4ccccc4Cl)CC[C@@H]32)cc1", "cytotoxicity call": "inactive"}
{"compound": "C[C@@H]1CN([C@@H](C)CO)C(=O)c2cc(C#CC3(O)CCCC3)cnc2O[C@H]1CN(C)C(=O)Nc1ccc2c(c1)OCO2", "cytotoxicity call": "inactive"}
{"compound": "COC(=O)C[C@H]1CC[C@@H](N)[C@H](CO)O1", "cytotoxicity call": "inactive"}
{"compound": "Cc1noc(C)c1NC(=O)Nc1ccc2c(c1)C(=O)N([C@@H](C)CO)C[C@@H](C)[C@H](CN(C)C(=O)NC1CCCCC1)OCCCC[C@@H](C)O2", "cytotoxicity call": "inactive"}
{"compound": "CCn1c2c(ccc1=O)C[C@H](N)CC2", "cytotoxicity call": "inactive"}
{"compound": "COc1ccc(NC(=O)Nc2ccc3c(c2)C(=O)N([C@@H](C)CO)C[C@H](C)[C@H](CN(C)Cc2ccc(Oc4ccccc4)cc2)O3)cc1", "cytotoxicity call": "inactive"}
{"compound": "O=C(O)C[C@@H]1CC[C@H]2[C@@H](COC[C@@H](O)CN2S(=O)(=O)c2ccc(F)cc2)O1", "cytotoxicity call": "inactive"}
{"compound": "Cn1cnc(S(=O)(=O)N[C@H]2CC[C@H](CC(=O)N3CCN(c4ccccc4)CC3)O[C@@H]2CO)c1", "cytotoxicity call": "inactive"}
{"compound": "COc1ccc(NC(=O)N(C)C[C@@H]2OCCCC[C@H](C)Oc3ccc(NC(=O)Nc4c(C)noc4C)cc3C(=O)N([C@@H](C)CO)C[C@H]2C)cc1", "cytotoxicity call": "inactive"}
{"compound": "C[C@@H]1CN([C@H](C)CO)C(=O)c2cc(C#CCN(C)C)cnc2O[C@@H]1CN(C)Cc1cccc(C(=O)O)c1", "cytotoxicity call": "inactive"}
{"compound": "O[C@@H]1[C@@H](O)[C@H](Nc2ccccc2)OC[C@H]1O", "cytotoxicity call": "inactive"}
{"compound": "C[C@@H]1CN([C@@H](C)CO)S(=O)(=O)c2ccc(C#CC3CC3)cc2O[C@@H]1CN(C)C(=O)Cc1ccncc1", "cytotoxicity call": "inactive"}
{"compound": "C[C@@H]1CN([C@H](C)CO)C(=O)c2cc(NC(=O)CCC(F)(F)F)ccc2O[C@@H](C)CCCCO[C@@H]1CN(C)C(=O)CCC(F)(F)F", "cytotoxicity call": "inactive"}
{"compound": "C[C@H](CO)N1C[C@H](C)[C@H](CN(C)C(=O)C2CCC2)Oc2cc(-c3ccc(C(=O)N(C)C)cc3)ccc2S1(=O)=O", "cytotoxicity call": "inactive"}
{"compound": "C/C=C/c1ccc2c(c1)O[C@@H](CN(C)S(=O)(=O)c1ccc(F)cc1)[C@@H](C)CN([C@H](C)CO)S2(=O)=O", "cytotoxicity call": "inactive"}
{"compound": "O=C(C[C@H]1C[C@@H]2c3cc(NC(=O)C4CCOCC4)ccc3O[C@@H]2[C@H](CO)O1)NCCN1CCCCC1", "cytotoxicity call": "inactive"}
{"compound": "C[C@@H]1CN([C@H](C)CO)C(=O)c2cc(NC(=O)Nc3cccc4ccccc34)ccc2O[C@@H](C)CCCCO[C@H]1CN(C)S(=O)(=O)c1ccccc1", "cytotoxicity call": "inactive"}
{"compound": "COc1ccc(CN(C)C[C@H]2OCCCC[C@H](C)Oc3ccc(NS(=O)(=O)c4ccc(F)cc4)cc3C(=O)N([C@H](C)CO)C[C@@H]2C)cc1", "cytotoxicity call": "inactive"}
{"compound": "C[C@@H]1CN([C@H](C)CO)C(=O)Cc2cc(NC(=O)Nc3cccc4ccccc34)ccc2O[C@@H]1CN(C)Cc1ccc(Oc2ccccc2)cc1", "cytotoxicity call": "inactive"}
{"compound": "Cc1noc(C)c1NC(=O)N(C)C[C@H]1Oc2ccc(NC(=O)CCCN(C)C)cc2C(=O)N([C@H](C)CO)C[C@H]1C", "cytotoxicity call": "inactive"}
{"compound": "COCCOC(=O)N1C(=O)[C@@]2(c3ccccc31)[C@H](c1ccc(OCCO)cc1)N1[C@H](c3ccccc3)[C@H](c3ccccc3)OC(=O)[C@H]1[C@@H]2C(=O)Nc1nc2ccccc2s1", "cytotoxicity call": "inactive"}
{"compound": "CC(=O)N1CCO[C@H]2CCN(C(=O)c3cn(C)cn3)C[C@H]21", "cytotoxicity call": "inactive"}
{"compound": "C=CCOC(=O)[C@H]1[C@@H]2C(=O)O[C@@H](c3ccccc3)[C@@H](c3ccccc3)N2[C@@H](c2ccc(OCCOC(=O)[C@@H]3C[C@@H]4C(=O)N[C@@H](CCCC[N+](C)(C)C)C(=O)N4[C@@H]3c3cccc(OCCO)c3)cc2)[C@]12C(=O)Nc1ccc(I)cc12", "cytotoxicity call": "inactive"}
{"compound": "C[C@@H]1CN([C@H](C)CO)C(=O)Cc2cc(NS(=O)(=O)c3cccs3)ccc2O[C@@H]1CN(C)CC1CC1", "cytotoxicity call": "inactive"}
{"compound": "C[C@H]1CN([C@@H](C)CO)C(=O)Cc2cc(NC(=O)Nc3ccc(C(F)(F)F)cc3)ccc2O[C@H]1CN(C)S(=O)(=O)c1ccc(Cl)cc1", "cytotoxicity call": "active"}
{"compound": "C[C@@H]1O[C@@H](O[C@@H]2[C@@H](O)[C@H](O)[C@@H](CO)O[C@H]2c2c(O)cc3oc(-c4ccc(O)cc4)cc(=O)c3c2O)[C@H](O)[C@H](O)[C@H]1O", "cytotoxicity call": "inactive"}
{"compound": "O=C(C[C@H]1C[C@H]2c3cc(NC(=O)NC4CCCC4)ccc3O[C@H]2[C@@H](CO)O1)NCc1ccc2c(c1)OCO2", "cytotoxicity call": "inactive"}
{"compound": "C[C@@H]1CN([C@@H](C)CO)S(=O)(=O)c2ccc(-c3cccnc3)cc2O[C@H]1CN(C)C(=O)NC1CCCC1", "cytotoxicity call": "inactive"}
{"compound": "COc1ccc(S(=O)(=O)N(C)C[C@H]2Oc3ccc(NC(=O)Nc4c(C)noc4C)cc3CC(=O)N([C@@H](C)CO)C[C@@H]2C)cc1", "cytotoxicity call": "inactive"}
{"compound": "C[C@@H]1CN([C@H](C)CO)C(=O)Cc2cc(NC(=O)Cn3cnnn3)ccc2O[C@H]1CN(C)Cc1ccc(-c2ccccc2)cc1", "cytotoxicity call": "inactive"}
{"compound": "CN1C(=O)c2cc(NC(=O)c3cnccn3)ccc2OC[C@H]2O[C@@H](CC(=O)N[C@@H]3CCN(Cc4ccccc4)C3)CC[C@H]21", "cytotoxicity call": "inactive"}
{"compound": "C[C@@H]1CCCCO[C@H](CN(C)S(=O)(=O)c2cccs2)[C@@H](C)CN([C@H](C)CO)C(=O)c2cc(NC(=O)c3ccccc3)ccc2O1", "cytotoxicity call": "inactive"}
{"compound": "C[C@@H]1CCCCO[C@H](CN(C)S(=O)(=O)c2ccc(Cl)cc2)[C@@H](C)CN([C@@H](C)CO)C(=O)c2cc(NC(=O)Nc3ccc(C(F)(F)F)cc3)ccc2O1", "cytotoxicity call": "inactive"}
{"compound": "CS(=O)(=O)N1C[C@H](O)COC[C@@H]2O[C@@H](CC(=O)NCCc3ccncc3)CC[C@H]21", "cytotoxicity call": "inactive"}
{"compound": "CS(=O)(=O)Nc1ccc([N+](=O)[O-])cc1Oc1ccccc1", "cytotoxicity call": "inactive"}
{"compound": "CC(=O)n1cc([C@@H]2C=C(C(=O)N3CCOCC3)O[C@H](OCCCCOC(=O)NCCCCCC(=O)NO)C2)c2ccccc21", "cytotoxicity call": "inactive"}
{"compound": "C[C@@H]1CN([C@H](C)CO)C(=O)c2cc(NS(=O)(=O)c3ccc(Cl)cc3)ccc2O[C@H]1CN(C)Cc1ccc(-c2ccccc2)cc1", "cytotoxicity call": "active"}
{"compound": "C[C@@H]1CN([C@H](C)CO)C(=O)c2cc(NC(=O)c3ccncc3)ccc2O[C@@H]1CN(C)Cc1ccncc1", "cytotoxicity call": "inactive"}
{"compound": "C[C@@H]1CN([C@H](C)CO)C(=O)c2cc(NC(=O)Cc3ccccc3)ccc2O[C@@H]1CN(C)Cc1ccc(C(F)(F)F)cc1", "cytotoxicity call": "inactive"}
